Measurements reported in the RNAGym collection of RNA variant scans (doi:10.1093/nar/gkz1192).
The source gives no read counts; variants with many changes may rest on few reads.

B1: CPEB3 Ribozyme (parent)
chain: UAACAGGGGGCCACAGCAGAAGCGUUCACGUCGCAGCCCCUGUCAGAUUCUGGUGAAUCUGCGAAUUCUGCUGUAUAUCUC

Variants of: B1
Assay: self-cleavage, relative activity (ratio to wild type); higher = more cleavage; in vitro, sequencing
How it was run: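 Relative activity was defined as the cleaved/total read fraction for a variant divided by the same fraction for the unmutated ribozyme. CPEB3 self-cleaving ribozyme libraries were made by rounds of error-prone PCR, barcoded, and transcribed in vitro with T7 RNA polymerase for 5 hours at 37°C, and cleavage ran through transcription plus a 15 min DNase I step before EDTA. Illumina sequencing of template-switched reverse transcripts gave the reads, and DNA sequencing mapped the barcodes. Averages come from three batches, using variants with at least 5 reads.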

Variant	self-cleavage
A28G A56U U60C U66C U72A U76A	0.04
A28G U41C U48C A57G G63U A75U	0.92
A28G U41A U76C	0.13
A28G U31C U58C U69C U78C	0.14
A28G C32G U58C U67C	0.08
A28G U54A U60A	0.24
C27U G30A U80C	0.47
A28G U41C U72C C81A	0.74
A28C A45G U54A	0.39
A28G U49C U60A U78C	0.05
A28G A47G U49C U69A	0.14
A28G C32U U74C	0.17
A28G A64G A65C	0.16
A28G U41A A77G U80C	0.17
C27U U60A A75U	0.23
C27U U60C U80C	0.23
A28G U41A G42C U69A U80A	0.2
A28G C34U A35U U60C A64G	0.1
A28G U58C U80C	0.22
A28G U58C A77G U78C	0.13
A28G A35G G70A	0.53
A28G A35U U43C U60C	0.07
A28G A65G U69A	0.09
A28G U48C A64G U69C	0.17

Variant	self-cleavage
A28C G30U A47G U49A U54C U72C	0.13
A28G C38G A45G U51A U72A	0.05
A28G U48C A64G U80C	0.23
A28G U31A G46C U51C	0.12
A28G A35U G63A	0.09
A28G A45U U51C	0.16
A28G A35G A47G U54C	1.18
A28G C50U U54G U69C	0.09
A28G A45G U48C U51C U60A A65U	0.15
A28G U49C A64U	0.3
A28G U31A U48C	0.07
A28G G30A G33A U54A U78C	0.04
A28C U54C U60C U78C	0.42
A28G A65U U69C	0.45
A28G U41A U80A	0.38
A28G U43C U60A U66C U72A	0.11
A28G U43G U49C G73A U76C	0.09
A28G G33A U43A U60A U67C	0.1
A28G U41C U43C U78C	0.58
A28G G33A A47G	0.29
A28G C32U A45U	0.06
A28G U41C U49C U58C A65G	0.18
A28G A35G U74C U80C	1.23
A28G U41C G61A	0.25

Variant	self-cleavage
C27U U54A A57G U69C	0.08
A28G A45U G73A	0.93
A28G A35G U66C	0.64
A28G U48C U69G U78C C81U	0.07
C27U U66C U72A	0.08
A28C U60C U80C	0.13
A28G G30U U58C G63A	0.11
A28G G30C G42A U48A U58G U72C	0.07
A28G U48C U80C	0.33
A28G A35G A45G C59A U80C	0.33
A28G U31G G63A	0.18
A28G U67C U76C	0.15
A28G A45G A65G U69A U72A	0.12
A28G U54C A56U	0.17
A28G A35G U51C U74C U80C	1.18
A28G C34G U72C U78G	0.19
A28C U49C A56U A65G	0.13
A28G U51C U80A	0.76
C27U U54A C62U A65G	0.16
A28G U51C U76A U78C	0.4
C27U U43C G61C G70C	0.1
A28G C44A A45G U78C	0.24
A28G U41C A64G	0.46
A28C A45U U49C A64U	0.18

Variant	self-cleavage
A28G U31G U43C A64G	0.11
C27U U49C A56G	0.08
A28G A35G C37G U43C G46U A75G	0.11
A28G A56G U72C	0.57
A28G A35G C40U U41C	1.05
A28G U31C U51C	0.15
A28G A57G U60C	0.34
A28G C50A U51C U67A U74A	0.09
A28G U49C U72G U76A	0.07
A28G U51A A64U	0.15
A28G C32A A64G	0.26
A28G A64G U72C	0.19
A28G A35U U51G A57G	0.16
C27U U31C A35U U60C U69A	0.08
A28G A64G U74C A75U U78C	0.8
A28G A65U U72C	0.16
A28G U31A U69G U74C	0.13
C27U U43C A56G	0.13
A28G U48C G63U	0.39
A28G U49C A56G A57G U72A	0.18
A28G C40A U78C C79G	0.21
A28G A35U U48C U80A	0.11
A28G C37U A45G U60C	0.29
A28G U41A U72C	0.26

Variant	self-cleavage
A28G U31C U41A A57U	0.13
A28G U49C C59G	0.11
A28G A35G U69C U80A	0.51
A28C A65G U80C	0.58
A28G U41C U78C	0.24
A28G U41C U58C U72A U78C	0.17
C27U U60C U72C U78A	0.11
A28G U41C G52A U60C U80C	0.16
A28G U51A U80C	0.74
A28G U54C U78C U80A	0.68
A28G U49C U74C	0.35
A28G U41C U72A	0.3
A28G C39G U54A A57G	0.1
A28G U51A U54C A56U U69C	0.17
A28G U41C A56G A65G U66C U78C	0.05
A28C C62U C71A U80C	0.07
A28C U43A A57G A64G U69C U76C U80C	0.15
A28G U41C A57G	0.55
A28G U41A A47G U72C	0.05
A28G G46U U54C U67C U72A	0.08
A28G A45U U51C U80C	0.09
A28G U54G U69C	0.13
A28G C38U C44A U80G	0.03
A28G U41C U54C U60C U67C	0.19

Variant	self-cleavage
A28G A35G C40U A65U	0.21
A28G A57G U60C A64G	0.17
A28G A56G U58C A64U U78C	0.07
A28G U41A U48A A57G U60C	0.12
A28C A35U U72C	0.24
A28G C40U U76A	0.49
A28G C37U U54C	0.3
A28G A56U U66C	0.13
A28G U31C U41A A45G U49C U66C A77U	0.04
A28C U43C C44U A56G	0.07
A28G U54C G55C U74C	0.35
A28G U67C U72G	0.13
A28G A64G A65G U69A U76C	0.11
A28G A56G U74A U80C	0.96
A28G U49C A64G A77G U80C	0.35
A28G A47U U51A U78C	0.13
A28G U31C U58C U80C	0.26
A28G A45G A47U U49C U69C G70A A77U	0.1
A28G G52A A75G U80C	0.29
A28G U51C U54A A57G	0.62
A28C G53A U67C	0.17
A28G C32U U60C U66G U80C	0.11
A28G U31C U41C U54A U58C U69G U72A	0.07
C27U U69A U72A	0.05

Variant	self-cleavage
A28G U60A U67G	0.1
A28G A47G U54G	0.34
A28G A47G U54C	0.34
A28G U41C U60C U66C U78C	0.1
A28G A35G A64U U67A	0.42
C27U G61C A64G	0.09
C27U U43C A45U	0.17
C27U U49C G53A A57G	0.16
A28C U31C C38A U48C U80C	0.12
A28C U31A A64G U69C	0.46
A28G U41C A65G U67C	0.13
A28G U41C U49C U60C	0.16
A28G A45U U48A A57G U69C U80C	0.03
A28G A35U U41C A65G	0.16
A28G C37U U41C A47G A75U	0.27
A28G U43C U69A	0.07
A28G C40G U49G	0.11
A28G A56U U66C U78C	0.13
A28G U41C A56U A57G U80C	0.17
A28G C39U G46A G70U U74C	0.43
A28C G52A A64U	0.18
A28G U43C U48A U76C A77U	0.21
A28G G30A U41G U51A	0.11
